Test results published in article PMC4336329 (PLoS ONE, 2015).
The whole screen tested about 310,000 compounds, of which about 14,000 (4.5%) showed an effect of 50% or more. Effects have a minus sign here. The list shows a part of the results.

target: human ether-à-go-go-related gene (hERG) potassium channel (human, UniProt Q12809); assay: primary screen, population patch clamp on CHO cells stably expressing hERG
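Note: peak tail current of the secondary pulse compared with the same well before compound.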

Sequence of human ether-à-go-go-related gene (hERG) potassium channel (Q12809 whole entry, looked up): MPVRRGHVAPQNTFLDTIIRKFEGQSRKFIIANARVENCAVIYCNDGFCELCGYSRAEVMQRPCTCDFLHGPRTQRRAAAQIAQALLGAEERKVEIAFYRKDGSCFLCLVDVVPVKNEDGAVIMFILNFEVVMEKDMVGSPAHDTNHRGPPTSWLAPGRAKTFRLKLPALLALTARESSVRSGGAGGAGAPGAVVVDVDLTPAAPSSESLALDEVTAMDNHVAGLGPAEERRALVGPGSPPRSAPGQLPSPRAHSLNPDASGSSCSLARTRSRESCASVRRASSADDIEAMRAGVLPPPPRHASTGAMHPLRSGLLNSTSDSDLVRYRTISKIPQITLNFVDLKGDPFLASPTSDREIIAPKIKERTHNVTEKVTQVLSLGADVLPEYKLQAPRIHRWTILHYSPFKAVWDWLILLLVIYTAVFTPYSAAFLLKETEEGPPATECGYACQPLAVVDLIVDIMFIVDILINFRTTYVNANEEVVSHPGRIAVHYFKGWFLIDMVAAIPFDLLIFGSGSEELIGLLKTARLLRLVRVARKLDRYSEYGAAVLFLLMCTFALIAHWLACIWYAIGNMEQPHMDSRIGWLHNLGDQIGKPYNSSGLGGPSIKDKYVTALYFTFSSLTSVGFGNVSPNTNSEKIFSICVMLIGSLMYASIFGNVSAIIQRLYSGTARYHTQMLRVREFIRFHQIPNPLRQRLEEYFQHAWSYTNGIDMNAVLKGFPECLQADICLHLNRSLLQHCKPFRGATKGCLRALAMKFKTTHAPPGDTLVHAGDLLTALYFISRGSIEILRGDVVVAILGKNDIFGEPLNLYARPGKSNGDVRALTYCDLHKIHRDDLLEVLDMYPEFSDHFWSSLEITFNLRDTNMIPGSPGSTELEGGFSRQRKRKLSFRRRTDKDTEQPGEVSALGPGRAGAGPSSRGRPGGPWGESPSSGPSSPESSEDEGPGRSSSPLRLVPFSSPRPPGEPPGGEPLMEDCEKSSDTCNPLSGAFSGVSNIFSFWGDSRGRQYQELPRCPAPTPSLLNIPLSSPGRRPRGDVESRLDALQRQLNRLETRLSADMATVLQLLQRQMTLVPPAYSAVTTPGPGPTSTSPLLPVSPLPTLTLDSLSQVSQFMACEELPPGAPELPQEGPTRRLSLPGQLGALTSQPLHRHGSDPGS

Compound | hERG current change (%, negative = inhibition) at 10uM [%]
CCn1c(=O)n(CCc2ccccc2)c(=O)c2c3c(sc21)CCCC3 | 1.05
Cc1ccc(-n2c(-c3ccc(Cl)cc3)c[n+]3c2CCC3)cc1.[Br-] | -62.4
CCN1C(=O)C(O)(CC(=O)c2ccc3c(c2)OCCO3)c2ccccc21 (centres unmarked) | 0.774
COc1cc(CN2CCCC(C(=O)c3ccc4c5c(cccc35)CC4)C2)cc(OC)c1O (centres unmarked) | -53
O=C(Cc1ccc(Br)cc1)OCC(=O)c1ccc2c(c1)OCCO2 | 13.1
COc1ccc(C(=O)N2CCC(C(=O)NC3CC3)CC2)cc1 | 4.25
CCCCN1C(=O)CCC(C(=O)O)C1c1ccccc1 (centres unmarked) | -2.13
C/C(CC(=O)Nc1ccccc1Cl)=N\NC(=O)C(=O)NCCO | 6.65
CCOC(=O)c1c(NC(=O)C2CC(Cl)=CCC2C(=O)O)sc2c1CCCCC2 (centres unmarked) | 0.267
O=C(CCN=C1NS(=O)(=O)c2ccccc21)OCc1nnc(-c2ccccc2)o1 | 2.39
CCOC(=O)C1=C(COC(=O)CNC(=O)c2cccc(C)c2)NC(=O)NC1C (centres unmarked) | 0.589
C=CCOc1ccc(Br)cc1CNC(C)(C)C.Cl | -14.7
COc1ccc(N2CCN(C(=O)CC34CC5CC(CC(C5)C3)C4)CC2)c([N+](=O)[O-])c1 | 0.229
Cn1c(=O)c2sccc2n2c(CCCC(=O)Nc3ccccc3)nnc12 | -11.8
Cc1cc(C)nc(N/C(=N\S(=O)(=O)Cc2ccccc2)Nc2ccccc2Br)n1 | 7.93
C=CCn1c(-c2csc3ccccc23)n[nH]c1=S | 18.3
CCCCc1n(CC(=O)c2ccc(Cl)cc2)c2ccccc2[n+]1C.[Br-] | 8.02
S=C(c1cccs1)N1CCCC1 | 14.1
Cc1ccc(C)c(NC(=O)CN(C)C(=O)/C=C/c2ccco2)c1 | 15.7

Compound | hERG current change (%, negative = inhibition) at 10uM [%]
C(=N\Nc1nc(N2CCOCC2)nc(N2CCOCC2)n1)/c1cccnc1 | -12.1
COc1ccc(C)cc1S(=O)(=O)N(C)CC(=O)Nc1ccc2c(c1)OCCO2 | -6.52
Clc1ccc(C2N3CCCN23)c(Cl)c1 (centres unmarked) | 20.4
COc1cc(C)nc(NCc2ccccc2)n1 | 10.9
COc1ccccc1N1CCN(S(=O)(=O)c2c(C(=O)N3CCOCC3)c(C)n(C)c2C)CC1 | 15.6
CC(C)(C)OC(=O)NNC(=O)NC12CC3CC(CC(C3)C1)C2 | -4.97
Cc1cccc(N=Cc2cc3c(cc2[N+](=O)[O-])OCO3)c1 | 15.6
CC1CC(C)(C)Nc2ccc(OC(=O)c3ccco3)cc21 (centres unmarked) | 8.5
COc1ccc(N(CC(=O)Nc2ccc(S(=O)(=O)N3CCCC3)cc2)S(C)(=O)=O)cc1OC | 2.29
O=C(CNC(=O)c1ccccc1)NCCc1ccc(O)c(O)c1 | 1.15
O=C(NCCN1CCN(c2cccc(Cl)c2)CC1)Nc1ccccc1 | -35.1
O=S(=O)(c1ccccc1)c1cc(O)ccc1O | 16.9
O=C1COc2ccc(S(=O)(=O)CCC(=O)N3CCN(c4cccc(Cl)c4)CC3)cc2N1 | -58.4
O=C(CCCCn1c(=O)[nH]c2ccsc2c1=O)NCC1CCCO1 (centres unmarked) | 4.17
NC(=O)NC(=O)CN1C(=O)NC(c2ccccc2)(c2ccccc2)C1=O | 4.8
COc1ccc(NC(=O)NNC(=O)c2ccccc2-n2cccc2)cc1OC | 25.4
CC(C)Cn1c(Br)nc2c1c(=O)n(CCC#N)c(=O)n2C | -23.8
CCc1ccc(CN2C(=O)c3ccccc3C2C(=O)NCC2CCCO2)cc1 (centres unmarked) | 8.88
O=C1/C(=C\c2ccccc2)C2OCC=C3CN4CCC56c7ccccc7N1C5C2C3CC46 (centres unmarked) | -53.4

Compound | hERG current change (%, negative = inhibition) at 10uM [%]
O=C(Cn1cnc2ccccc2c1=O)NCCC(=O)Nc1ccccc1C(F)(F)F | 13.9
CS(=O)(=O)N(CC(=O)N1CCN(Cc2ccccc2)CC1)c1ccc(F)cc1 | -3.35
Cc1ccc2[nH]c(=O)c3cc(C(=O)N(C)c4ccccc4C)sc3c2c1 | 12.4
Cc1cc(C)nc(SCc2nnc(SCC(=O)Nc3nc(-c4ccccc4)cs3)n2-c2ccccc2)n1 | -6.47
CC1=NN(C(=O)c2ccc(Cn3cc(Br)c([N+](=O)[O-])n3)o2)C(O)(C(F)(F)F)C1 (centres unmarked) | -16.6
Cc1c(/C=N/NC(=O)c2cccnc2)c2ccccc2n1Cc1ccccc1 | 15.8
Cc1cc(N)n(-c2ccc(C(=O)O)cc2)n1.Cl | 13.6
Cc1cc(NS(=O)(=O)c2ccc(C3CCCCC3)cc2)no1 | 8.7
COC(=O)C(CC(=O)c1cccc(OC)c1)c1ccc(F)cc1 (centres unmarked) | -1.14
COCCNC(=S)Nc1cc(OC)c(NC(=O)c2ccco2)cc1OC | -3.62
Br.N=c1n(CC(=O)O)c2ccccc2n1Cc1ccccc1Cl | 0.122
O=C(CSCC(=O)N1CCCCC1)Nc1nc(-c2ccccc2)c(-c2ccccc2)s1 | 14
COc1ccc(CC(=O)Nc2ccc(S(=O)(=O)NC(C)C)cc2)cc1 | -5.54
OC1C2(Cc3ccccc3)CN3CCN(C2)CC1(Cc1ccccc1)C3 (centres unmarked) | -1.47
CCC1(c2ccccc2)NC(=O)N(CC(=O)Nc2nnc(C3CC3)s2)C1=O (centres unmarked) | 10.3
CCOC(=O)CSc1ccc(S(=O)(=O)N2CCC(C)CC2)cc1[N+](=O)[O-] | 5.36
Cn1c(=O)oc2cc(S(=O)(=O)N3CCCC(C(=O)Nc4ccccn4)C3)ccc21 (centres unmarked) | -7.76
Cc1nn(C)cc1CNC(=O)c1cccc(Br)c1 | 16.6
